These are yes or no findings as the source states them, for the method shown. In cells and extracts the contact can be indirect. Some entries that bind do so weakly or less than the wild type.
Assays:
[1] = biological target: endogenous RIPK1 (human (endogenous in NP460hTERT, NP460hTERT-EBV, CNE1, CNE1-LMP1)) (UniProt Q13546); assay: proximity ligation
[2] = biological target: endogenous RIPK3 (human (endogenous in NP460hTERT, NP460hTERT-EBV, CNE1, CNE1-LMP1)) (UniProt Q9Y572); assay: proximity ligation
[3] = biological target: RIPK1 (mutRHIM), the RHIM mutant RIPK1 with AAAA substitutions in IQIG(539-542), Myc-tagged (UniProt Q13546); assay: co-IP
[4] = biological target: RIPK3 (mutRHIM), the RHIM mutant RIPK3 with AAAA substitutions in VQVG(458-461), Myc-tagged (UniProt Q9Y572); assay: co-IP
[5] = biological target: Myc-RIPK1 (receptor-interacting protein kinase 1) (UniProt Q13546); assay: proximity ligation
[6] = biological target: Myc-RIPK3 (full-length RIPK3 in GV219 vector) (UniProt Q9Y572); assay: proximity ligation
[7] = biological target: RIPK1 (mutRHIM), the RHIM mutant RIPK1 with AAAA substitutions in IQIG(539-542), Myc-tagged (UniProt Q13546); assay: proximity ligation
[8] = biological target: RIPK3 (mutRHIM), the RHIM mutant RIPK3 with AAAA substitutions in VQVG(458-461), Myc-tagged (UniProt Q9Y572); assay: proximity ligation
[9] = biological target: Flag-RIPK3 (receptor-interacting protein kinase 3) (UniProt Q9Y572); assay: co-IP
[10] = biological target: endogenous RIPK3 (human (endogenous in NP460hTERT, NP460hTERT-EBV, CNE1, CNE1-LMP1)) (UniProt Q9Y572); assay: co-IP
[11] = biological target: endogenous RIPK1 (human (endogenous in NP460hTERT, NP460hTERT-EBV, CNE1, CNE1-LMP1)) (UniProt Q13546); assay: co-IP
[12] = biological target: Myc-RIPK1 (receptor-interacting protein kinase 1) (UniProt Q13546); assay: co-IP

Chains of the proteins cited; added tags and fusions are not shown. Lines headed by an entry give the natural chain unless they say otherwise; changes in a name come on top. A line that says so, or that is headed by a name, gives the form on record, which may keep a tag or linker.
UniProt Q13546: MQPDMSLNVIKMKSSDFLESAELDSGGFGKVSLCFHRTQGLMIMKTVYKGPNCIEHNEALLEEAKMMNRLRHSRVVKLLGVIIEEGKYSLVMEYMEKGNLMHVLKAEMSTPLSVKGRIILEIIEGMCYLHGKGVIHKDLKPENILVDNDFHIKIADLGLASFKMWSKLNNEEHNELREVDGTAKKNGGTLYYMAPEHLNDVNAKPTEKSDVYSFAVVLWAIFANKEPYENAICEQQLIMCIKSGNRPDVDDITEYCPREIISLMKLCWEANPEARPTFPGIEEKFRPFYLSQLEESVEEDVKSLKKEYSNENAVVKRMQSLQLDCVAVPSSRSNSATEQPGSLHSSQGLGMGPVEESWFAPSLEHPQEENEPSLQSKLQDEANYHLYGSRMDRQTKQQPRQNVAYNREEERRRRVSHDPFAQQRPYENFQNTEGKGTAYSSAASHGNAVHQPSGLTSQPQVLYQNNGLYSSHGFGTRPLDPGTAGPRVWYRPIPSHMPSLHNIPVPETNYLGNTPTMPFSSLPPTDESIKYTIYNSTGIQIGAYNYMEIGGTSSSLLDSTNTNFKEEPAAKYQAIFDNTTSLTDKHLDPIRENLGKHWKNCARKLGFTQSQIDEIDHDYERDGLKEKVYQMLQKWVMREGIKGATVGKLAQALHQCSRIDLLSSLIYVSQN
RIPK1 (mutRHIM), the RHIM mutant RIPK1 with AAAA substitutions in IQIG(539-542), Myc-tagged (Q13546, form named): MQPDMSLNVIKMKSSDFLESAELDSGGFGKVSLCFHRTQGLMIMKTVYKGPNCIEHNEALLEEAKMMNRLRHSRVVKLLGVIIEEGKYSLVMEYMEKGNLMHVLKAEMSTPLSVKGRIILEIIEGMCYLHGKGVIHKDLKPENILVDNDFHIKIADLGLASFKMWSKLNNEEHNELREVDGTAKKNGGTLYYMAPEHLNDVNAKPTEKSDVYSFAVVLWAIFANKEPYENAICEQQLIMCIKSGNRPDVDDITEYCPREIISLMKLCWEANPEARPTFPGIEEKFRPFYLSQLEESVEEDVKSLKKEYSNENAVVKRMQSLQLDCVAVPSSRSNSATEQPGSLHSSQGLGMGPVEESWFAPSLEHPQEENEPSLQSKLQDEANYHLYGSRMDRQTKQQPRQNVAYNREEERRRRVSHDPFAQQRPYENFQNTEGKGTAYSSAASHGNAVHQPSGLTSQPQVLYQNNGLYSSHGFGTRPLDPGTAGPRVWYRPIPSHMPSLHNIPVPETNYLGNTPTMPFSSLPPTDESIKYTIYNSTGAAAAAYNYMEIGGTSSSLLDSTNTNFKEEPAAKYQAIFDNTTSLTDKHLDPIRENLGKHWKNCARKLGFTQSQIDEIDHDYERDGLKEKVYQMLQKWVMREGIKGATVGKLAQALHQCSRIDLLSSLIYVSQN
UniProt Q9Y572: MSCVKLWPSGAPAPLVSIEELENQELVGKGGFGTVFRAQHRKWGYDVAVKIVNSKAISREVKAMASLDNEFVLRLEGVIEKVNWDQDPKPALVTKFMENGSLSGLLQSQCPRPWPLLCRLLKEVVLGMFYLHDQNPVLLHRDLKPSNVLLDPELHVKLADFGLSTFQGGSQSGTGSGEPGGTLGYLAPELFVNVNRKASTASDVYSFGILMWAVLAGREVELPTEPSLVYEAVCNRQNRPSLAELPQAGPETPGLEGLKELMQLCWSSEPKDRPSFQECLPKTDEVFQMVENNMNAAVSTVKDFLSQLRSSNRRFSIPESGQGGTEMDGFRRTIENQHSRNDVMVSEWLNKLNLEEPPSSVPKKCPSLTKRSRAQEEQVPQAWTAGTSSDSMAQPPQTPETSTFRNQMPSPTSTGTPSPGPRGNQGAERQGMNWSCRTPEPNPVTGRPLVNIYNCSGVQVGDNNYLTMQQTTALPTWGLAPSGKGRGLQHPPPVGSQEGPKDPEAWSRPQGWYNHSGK
RIPK3 (mutRHIM), the RHIM mutant RIPK3 with AAAA substitutions in VQVG(458-461), Myc-tagged (Q9Y572, form named): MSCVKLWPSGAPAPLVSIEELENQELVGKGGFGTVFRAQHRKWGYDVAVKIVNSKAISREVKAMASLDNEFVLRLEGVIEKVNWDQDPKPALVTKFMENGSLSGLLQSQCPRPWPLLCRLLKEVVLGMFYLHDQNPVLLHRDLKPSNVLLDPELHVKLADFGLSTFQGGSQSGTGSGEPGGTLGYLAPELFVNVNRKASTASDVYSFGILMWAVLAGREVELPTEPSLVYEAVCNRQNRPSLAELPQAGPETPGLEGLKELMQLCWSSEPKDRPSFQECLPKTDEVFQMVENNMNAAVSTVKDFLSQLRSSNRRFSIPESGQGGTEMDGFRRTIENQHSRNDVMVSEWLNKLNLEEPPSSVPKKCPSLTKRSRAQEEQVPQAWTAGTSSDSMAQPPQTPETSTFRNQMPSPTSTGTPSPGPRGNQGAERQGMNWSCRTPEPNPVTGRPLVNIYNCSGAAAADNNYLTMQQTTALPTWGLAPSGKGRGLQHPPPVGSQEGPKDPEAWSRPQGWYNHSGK
UniProt P03230: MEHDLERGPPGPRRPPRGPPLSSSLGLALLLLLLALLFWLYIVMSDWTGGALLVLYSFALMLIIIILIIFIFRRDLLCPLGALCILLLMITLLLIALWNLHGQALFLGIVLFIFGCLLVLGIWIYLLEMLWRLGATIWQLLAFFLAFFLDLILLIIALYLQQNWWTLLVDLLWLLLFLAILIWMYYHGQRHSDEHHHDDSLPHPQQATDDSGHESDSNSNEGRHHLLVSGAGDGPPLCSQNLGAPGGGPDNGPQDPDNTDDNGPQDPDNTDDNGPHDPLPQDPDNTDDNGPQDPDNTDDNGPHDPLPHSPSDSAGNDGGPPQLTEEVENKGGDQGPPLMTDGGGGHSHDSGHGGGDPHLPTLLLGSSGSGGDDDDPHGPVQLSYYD
UniProt P03182: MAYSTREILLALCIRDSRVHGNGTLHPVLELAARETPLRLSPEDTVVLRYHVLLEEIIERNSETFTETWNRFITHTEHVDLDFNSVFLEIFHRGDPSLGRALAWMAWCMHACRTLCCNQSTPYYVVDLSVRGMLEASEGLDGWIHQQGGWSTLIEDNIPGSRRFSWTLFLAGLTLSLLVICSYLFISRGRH

## LMP1 expressed by EBV in NP460hTERT-EBV cells (from UniProt P03230)
[1]
  binding: binds
[2]
  binding: binds

## Flag-LMP1 (full-length LMP1 in GV141 vector) (from UniProt P03230)
[3]
  binding: binds
[4]
  binding: binds
[5]
  binding: binds
[6]
  binding: binds
[7]
  binding: binds
[8]
  binding: binds

## Myc-RIPK1 (receptor-interacting protein kinase 1) (from UniProt Q13546 1-671)
[9]
  binding: binds

## endogenous RIPK1 (from UniProt Q13546 1-671)
[10]
  binding: binds
[2]
  binding: binds

## Flag-BHRF1 (EBV early lytic cycle protein BHRF1) (from UniProt P03182 1-191)
[5]
  binding: no binding
[6]
  binding: no binding

## LMP1 in LMP1-overexpressing nasopharyngeal carcinoma cells (CNE1-LMP1) (from UniProt P03230)
[11]
  binding: binds
[10]
  binding: binds

## Epstein-Barr virus encoded latent membrane protein 1 (LMP1), expressed from pSG5-LMP1 (from UniProt P03230)
[9]
  binding: binds
[12]
  binding: binds

From publication PMC5833833
